Measurements from PubChem BioAssay AID434955 (Southern Research Specialized Biocontainment Screening …, 2010).
Some of the results follow. These are further read-outs of the screen, such as a control signal, another cell line or another target. No call is given for them. The list favours compounds with an active or inconclusive main result.

Assay: beta-lactam sensitization of Mtb H37Rv, H37Rv (AID 434955);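 also: growth measured after seven days incubation then overnight dye step; 0% = bacteria only wells and 100% = bacteria with antibiotic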
Conditions: M. tuberculosis H37Rv growth with meropenem, percent inhibition; measured here: primary screen without meropenem; at 25 µM

SMILES	inhibition [%]
Cc1cc(C)nc(NC(=S)Nc2cccc(F)c2)c1	28.3
Cc1ccc(C)c(N2CCN(CC3CCCCC3)CC2)c1	38.3
O=C(CN1CCC(O)(c2ccc3c(c2)OCO3)CC1)OC1CCCCC1	27.7
CCOC(=O)Cn1nc(-c2ccc(C)cc2)c2ccccc2c1=O	17.3
Cn1cccc1Cc1nnc(SCC(=O)Nc2ccc(F)cc2F)n1-c1ccc(F)cc1	-0.54
C/C(=N\NC(N)=S)c1ccc(-n2ccnc2)cc1	0.39
O=C1CN(C(=O)c2ccc(Br)o2)C(c2ccc(F)cc2)c2cc(F)ccc2N1 (stereo not drawn)	-4.75
O=C(c1ccccc1)c1ccc2ccccc2n1	2.69
CN(C)c1ccc(/C=C/C(=O)c2cccc(Br)c2)cc1	34.8
Cc1cc(C)cc(NC(=O)C2CCCN2S(=O)(=O)c2ccc3c(c2)C(C)(C)C(=O)N3C)c1 (stereo not drawn)	-15.1
CC1CCc2c(sc(NC(=O)C3=COCCO3)c2C(N)=O)C1 (stereo not drawn)	40.8
COc1cccc(C(=O)N2CCC(CCC(=O)Nc3cccc(C)c3)CC2)c1	-1.84
CCn1nnc2cc(C(=O)Nc3cc(S(C)(=O)=O)ccc3Cl)ccc21	5.42
Cc1ccc(N=Cc2nc(/C=C/c3cccc([N+](=O)[O-])c3)oc2O)cc1	-3.57
NC1=Nc2ccccc2Oc2ccccc21	-6.66
Cc1cc(OCc2nnc(SCC(=O)OC3CCCCC3)o2)ccc1Cl	99.6
Cc1cccn2c(CNCCc3ccccn3)c(C(=O)N3CCOCC3)nc12	-3.08
O=C(CSc1ccc([N+](=O)[O-])cn1)Nc1ccc(N2CCOCC2)cc1	33.1
COc1ccc2c(C)cc(SCc3c(C)noc3C)nc2c1	0.86
C/C(=N\NC(=O)C1(C)CC1(Br)Br)c1cccc(NC(=O)c2ccc(C)o2)c1 (stereo not drawn)	4.44
O=C(N/N=C/c1ccc([N+](=O)[O-])o1)c1ccccc1-n1cccc1	24.1
COCCNC(=S)N/N=C1\CC(C)CC(C)(C)C1 (stereo not drawn)	2.77

SMILES	inhibition [%]
Cc1ccc(OCC(=O)n2cnnc2N)c(C)c1	-5.62
O=S(=O)(c1ccccc1)c1nc(-c2ccccc2)oc1NCCCN1CCOCC1	9.33
CN(C)c1ccc(C(=O)c2ccc(N(C)C)cc2)cc1	2.76
CCOC(=O)C1CCCN(C(=O)Cn2nc(C)n3nc(-c4ccccc4)cc3c2=O)C1 (stereo not drawn)	-6.22
CC1CCN(CCCNC(=O)COc2cc(=O)n(C)c3ccccc23)CC1	-4.22
Cc1n[nH]c(=O)c2c1nnn2Cc1ccc(F)cc1	-2.83
Cc1ccc(-c2noc(CNS(=O)(=O)c3ccccc3)n2)cc1	4.84
COc1ccc(C(=O)NC(=S)Nc2ccc(S(=O)(=O)Nc3cc(C)on3)cc2)cc1OC	4.47
COc1cc(/C=C(\C#N)C(=O)NCC2CCCO2)c([N+](=O)[O-])cc1OC (stereo not drawn)	0.01
COc1cccc2c1cc1c(=O)n(CC(=O)N3CCCCCC3)nc(C)n12	-0.42
Cc1ccc(N2CCN(CCc3ccccc3)CC2)cc1	-0.48
O=C(NCC1COc2ccccc2O1)C1CCC(CNc2c(N3CCCCC3)c(=O)c2=O)CC1 (stereo not drawn)	48.3
COc1cc2c(cc1OC)-c1cc(OCc3ccccc3Cl)nc(=O)n1CC2	7.03
Cc1cccc(NCN2C(=O)c3ccncc3C2=O)n1	-1.82
COc1ccc(-c2cc(C(F)(F)F)nc(NCc3cccs3)n2)cc1	1.52
CCCC(=O)Nc1ccc(NC(=S)NC(=O)c2cccs2)cc1	5.6
CCCN1CCC(N2CCN(c3cccc(C(F)(F)F)c3)CC2)CC1	-2.98
COCCOC(=O)c1c(C)oc2ccc(OC(=O)c3c(OC)cccc3OC)cc12	2.34
CCCn1nc(NC(=O)c2ccco2)c2cc3cc(C)ccc3nc21	30.3
O=C(COC(=O)c1cc([N+](=O)[O-])ccc1N1CCOCC1)NCc1ccc(F)cc1	4.94
O=C1NC(=O)N(Cc2ccco2)C(=O)/C1=C\c1ccc(-c2ccc(F)cc2)o1	29.1
O=C(NCc1ccc2c(c1)OCO2)Nc1ccc2ccccc2c1	0.73

SMILES	inhibition [%]
COc1ccc(N(C(=O)c2ccncc2)S(=O)(=O)c2ccc(OC)c(OC)c2)cc1	2.16
COc1ccccc1N(CN1CCCC1=O)C(=O)COc1ccccc1	2.5
Cc1cc(C(=O)NCc2cccs2)n(-c2ccccc2)n1	-6.27
Cc1cccc(CSC2=NCCN2S(=O)(=O)c2ccc(F)cc2)c1	13.5
CCOc1ccc(S(=O)(=O)N2CC(=O)Nc3ccccc32)cc1	7.09
CCOC(=O)CSc1nc2c(c(=O)[nH]c(=O)n2C)n1CCCc1ccccc1	-5.64
Cc1ccc2c(c1)N(CC(=O)NCCCc1ccccc1)C(=O)c1cccnc1O2	-16
CCCc1ccc(-c2cc(NC(=O)CSc3n[nH]c(N)n3)n(-c3ccccc3)n2)cc1	54.1
CCN1CCN(C(=O)C2CCN(c3nnc(-n4c(C)ccc4C)s3)CC2)CC1	-7.71
Cc1ccc(Cl)cc1N(Cc1ccc(C(=O)NCc2cccnc2)cc1)S(=O)(=O)c1ccccc1	3.36
O=C(NC1(C(F)(F)F)Oc2ccccc2O1)N1CCC2(CC1)OCCO2	2.11
O=c1cc(C(F)(F)F)c2sc(N3CCCCC3)nc2[nH]1	5.01
O=C(c1cc2ccccc2o1)N1CCN(C/C=C/c2ccccc2)CC1	17.4
CS(=O)(=O)N(Cc1ccc(Cl)cc1)c1ccc(C(=O)NCCC2=CCCCC2)cc1	0.27
CCCn1cc(S(=O)(=O)c2ccc(C)cc2)c(=O)c2cc(OC)c(OC)cc21	5.54
CCOC(=O)C1CCN(C(=O)CCNS(=O)(=O)c2cc(Br)cnc2N)CC1	0.41
COc1ccc(-c2nnc(SCC(=O)N3CCOCC3)o2)cc1OC	-0.93
O=C(Cc1ccccc1[N+](=O)[O-])Nc1ccc(S(=O)(=O)N2CCCC2)cc1	1.54
CNc1oc(-c2ccccc2F)nc1S(=O)(=O)c1ccc(C)cc1	-1.27
CCCCC(=O)NC(=S)Nc1ccc(NC(=O)C(C)C)c(OC)c1	-5.62
O=C(c1ccc(Cl)cc1)N1CCC(N2CCC(C(=O)N3CCOCC3)CC2)CC1	5.72
Cc1ccc(Cl)cc1N1CCN(C(=O)C2CCN(c3nnc(-n4cccc4)s3)CC2)CC1	-17.3

SMILES	inhibition [%]
COc1ccc(/C=N\NC(=O)c2sc(N)nc2C)cc1OC	4.68
Cc1nnc(NC(=O)C2CCCN(c3ncccn3)C2)s1 (stereo not drawn)	-6.42
O=C(CCS(=O)(=O)c1ccc(F)cc1)Nc1nnc(-c2cccs2)o1	32.6
CC(C)(C)n1nc2c(c1NC(=O)C1CC(=O)N(c3ccc(Cl)cc3)C1)CS(=O)(=O)C2 (stereo not drawn)	0.06
CCn1c(SCCC(=O)O)nnc1-c1cccnc1	5.26
Cc1cc2c3c(c1)C(C)(c1ccccc1)CC(C)(C)N3C(=O)C21C(C#N)=C(N)OC2=C1C(=O)CC(C)(C)C2 (stereo not drawn)	88.1
Cc1cc(CNC(=O)c2cc(COc3ccc(F)c(F)c3)on2)nn1C	3.84
CN1CCc2ccccc2C1C1CCNCC1 (stereo not drawn)	-11
Nc1c2c(nc3sc4c(c13)CCCC4)-c1ccccc1CC2	20
CCC(CC)NC(=O)CON=C1c2ccccc2-c2ccccc21	16
Cc1nc2c(C(=O)NCCc3ccccc3)c[nH]n2c(=O)c1Cl	-10.4
Cn1ncc(Br)c1C(=O)Nc1ccc(Br)cn1	2.21
COc1ccccc1CNC(=O)C1CCCN(S(=O)(=O)c2cccc3cccnc23)C1 (stereo not drawn)	-4.3
CN(Cc1ccccc1)C(=O)c1ccc2c(c1)OCO2	6.38
CN(C)S(=O)(=O)c1ccc(C(=O)NCc2nnc(SCC(=O)N3CCCC3)o2)cc1	-8.2
CSc1nc(-c2ccc(Cl)cc2)nn1S(=O)(=O)c1ccccc1	30.6
CN1CCN(c2ccncc2S(=O)(=O)N2CCCCC2)CC1	-7.19
CCOC(=O)c1ccc(N2CCOCC2)c(NC(=O)c2nccnc2C(=O)O)c1	-0.22
COc1ccc(S(=O)(=O)N2CCN(C(=O)c3cc(-c4ccccc4OC)n[nH]3)CC2)cc1	2.25
O=C(NC1CC1)c1ccc(CS(=O)(=O)c2c(Cl)cccc2Cl)o1	-5.08
CN(CCC1CCCCO1)C(=O)c1cc(COc2ccc(F)cc2F)on1 (stereo not drawn)	2.89
Clc1ccc(-c2csc3ncnc(N4CCc5ccccc5C4)c23)cc1	3.07

SMILES	inhibition [%]
Cc1ccccc1N1C(=O)/C(=C/c2ccco2)C(=O)NC1=S	9.38
CCOC(=O)c1c(/N=C/c2cc([N+](=O)[O-])ccc2O)sc(C)c1C	2.42
CCN(CC)C(=O)C1CCCN(C(=O)CCn2nnnc2CN2CCOCC2)C1 (stereo not drawn)	0.01
Cc1ccc(OCc2cc(C(=O)NCC(C)c3ccccc3)no2)cc1C (stereo not drawn)	11.3
O=C(COc1ccccc1Cl)Nc1ccc(N2CCCC2)cc1	95.8
CCN(Cc1ccccc1)S(=O)(=O)c1cc(C(=O)OC)n(C)c1	-8.13
COc1ccc(OC)c(NC(=O)CSc2nnc(-c3ccco3)o2)c1	-0.57
O=C(CCNC(=O)c1ccc(Br)cc1)NCC1COc2ccccc2O1 (stereo not drawn)	-3.43
CC1CCN(CCOc2ccc(OCc3ccccc3)cc2)CC1	-10.4
Cn1cc(CN2CCCC(C(=O)Nc3cccc(-c4cc5ccccc5[nH]4)c3)C2)cn1 (stereo not drawn)	12.1
CCOC(=O)N1CCN(Cc2nc3c(c(=O)[nH]c(=O)n3C)n2Cc2cc(C)ccc2C)CC1	-5.27
Cn1cccc1/C=N\NC(=O)C1COc2ccc(C(C)(C)C)cc2O1 (stereo not drawn)	2.09
N#Cc1sc2nc(-c3cccs3)cc(-c3ccc(Cl)cc3)c2c1N	-2.75
COc1ccc(-n2nc3c(c2NC(=O)CBr)CSC3)cc1	-0.15
CSc1ccccc1OCc1cc(C(=O)N2CCN(c3ccccc3)CC2C)no1 (stereo not drawn)	19.9
COc1ccc(OC)c(C(=O)c2ccc(C(=O)O)cc2)c1	3.69
CCC1CCCCN1C(=O)CSc1nnc(-c2ccc(OC)cc2)o1 (stereo not drawn)	-10.4
COc1ccc(NC(=O)CSc2ccc3nnc(-c4cccnc4)n3n2)cc1OC	-2.1
CN(Cc1c(O)ccc2c1oc(=O)c1ccccc12)C1CCCCC1	-4.31
Cc1ccc(NC(=O)CN(C)C(=O)COC(=O)CCS(=O)(=O)c2ccc(C)cc2)cc1	10.4
